# ± gives the standard deviation of the averaged measurements. Over roughly 33,000 sequences, “E-score (dimensionless, -0.5 to 0.5)” has its median near -0.049; the highest 2% begin near 0.37. Some of the results follow.
# Test system: T1, PmTbr T-box DNA-binding domain (GST fusion)
# T1 sequence: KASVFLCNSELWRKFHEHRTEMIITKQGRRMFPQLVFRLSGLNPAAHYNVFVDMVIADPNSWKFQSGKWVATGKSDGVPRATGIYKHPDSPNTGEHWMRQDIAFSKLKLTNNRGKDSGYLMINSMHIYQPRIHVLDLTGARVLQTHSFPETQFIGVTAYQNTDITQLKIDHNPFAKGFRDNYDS
# Assay: PBM E-score of 8-mer (E-score (dimensionless, -0.5 to 0.5)); Tbr is Tbrain of the sea star Patiria miniata (Pm) or the sea urchin Strongylocentrotus purpuratus (Sp); higher = stronger binding preference; most listed sequences are background and not binding sites
# Settings: the construct has about 5 more residues each side
# Description: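 Universal protein-binding microarray (Agilent AMADID 016060, 60-bp probes with a 35-bp variable region) incubated with 200 nM GST-fused Patiria miniata Tbr T-box DNA-binding domain (residues 272-466) in PBS pH 7.5. Scored for every ungapped 8-mer (given with its reverse complement) by the Universal PBM Analysis Suite as E-score (modified Wilcoxon-Mann-Whitney enrichment, range -0.5 to 0.5; >0.45 counts as bound) and Z-score of median probe intensity. Two replicate arrays (datasets 1 and 2).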
row,Sequence,PBM E-score of 8-mer
1,CACTTCCG,0.37 ± 0.013
2,CTGCCGCC,0.0885 ± 0.073
3,GTTGCCTA,-0.123 ± 0.054
4,CAAGTTGA,0.116 ± 0.0034
5,GACCATCA,-0.233 ± 0.053
6,AAAGTTAA,-0.156 ± 0.049
7,ACTTATAC,0.0734 ± 0.081
8,AAGTAAGT,-0.0499 ± 0.021
9,AACGGCAG,-0.0199 ± 0.076
10,CAATTCTC,-0.00722 ± 0.0093
11,GATCTCGC,0.287 ± 0.058
12,ATTGTGTC,0.225 ± 0.0046
13,ATAGAAAG,-0.0905 ± 0.11
14,GTTGGACA,0.118 ± 0.033
15,ATACCGCG,-0.0911 ± 0.038
16,ATTTATTG,-0.2667 ± 0.00054
17,GAGCGCTC,-0.123 ± 0.15
18,TACTATGA,-0.35 ± 0.09
19,AGTCGGAC,-0.289 ± 0.022
20,ATACCAAA,-0.106 ± 0.015
21,CCGATTTC,-0.0839 ± 0.034
22,AACTTCTC,-0.0488 ± 0.043
23,CCCCGCCC,0.0864 ± 0.0062
24,ACAGATAG,0.133 ± 0.019
25,ATGCACTC,-0.0205 ± 0.076

row,Sequence,PBM E-score of 8-mer
1,GCTGGGTA,-0.312 ± 0.099
2,AACAGTAT,-0.0671 ± 0.081
3,ACTTATGG,-0.0397 ± 0.046
4,CCATTGAG,0.0528 ± 0.01
5,AACGTTCC,-0.132 ± 0.063
6,GGAGTTTA,-0.00974 ± 0.034
7,CTTGAGAA,0.0967 ± 0.061
8,ATTTCGTA,-0.0252 ± 0.001
9,CAGGCTGC,-0.0417 ± 0.014
10,GTATTAAA,-0.255 ± 0.01
11,CCTAACAA,0.184 ± 0.055
12,CATCGCTC,-0.0662 ± 0.035
13,TAACGGTA,-0.0327 ± 0.085
14,TACTTTGA,-0.111 ± 0.023
15,GGGTCCGA,-0.123 ± 0.0063
16,CCTGATAA,-0.0611 ± 0.078
17,CCCCTAAA,-0.0904 ± 0.008
18,GGATCGCA,0.145 ± 0.089
19,CCAGGAGA,-0.265 ± 0.047
20,CATGGAGA,-0.185 ± 0.049
21,AATGCGGG,-0.187 ± 0.05
22,ATGGAAGC,-0.2 ± 0.058
23,CAGACATC,-0.273 ± 0.015
24,ATTAGGAG,-0.213 ± 0.017
25,CCGATAAC,0.118 ± 0.074

row,Sequence,PBM E-score of 8-mer
1,ACAGTGAT,0.0998 ± 0.024
2,GTTTTGAA,-0.154 ± 0.11
3,GGCGGTAA,-0.134 ± 0.027
4,AAGGTTCC,-0.257 ± 0.054
5,CCAAGTGA,0.146 ± 0.01
6,ATCGCACC,0.4642 ± 0.0032
7,GGCGTACC,-0.137 ± 0.039
8,CATAGATA,-0.161 ± 0.051
9,TTCGCGAA,0.3702 ± 0.0034
10,CGGAAAGC,-0.0354 ± 0.05
11,ATCTGCCC,-0.128 ± 0.072
12,AAACTTAG,-0.0934 ± 0.013
13,TCGATACA,-0.0855 ± 0.021
14,ACTAGCAC,0.381 ± 0.013
15,CCGGTGAC,0.0841 ± 0.059
16,CTCCGATA,0.03408 ± 0.00015
17,AGTTGTAA,0.0996 ± 0.046
18,ATTTTATA,-0.154 ± 0.01
19,AGCAATGG,0.0749 ± 0.041
20,GCTTCTAC,-0.2661 ± 0.0012
21,GACCAGTC,-0.312 ± 0.023
22,ATGGTGAG,0.223 ± 0.0051
23,AGGACAGA,0.0658 ± 0.03
24,CTTGAATA,-0.295 ± 0.018
25,CCTCCCAA,-0.189 ± 0.077

row,Sequence,PBM E-score of 8-mer
1,GGAGGAGA,-0.011 ± 0.0051
2,CAAATTGC,-0.0755 ± 0.056
3,ACGCTGCT,0.0117 ± 0.0035
4,GAACTAGA,-0.127 ± 0.0057
5,ATATGCTA,0.105 ± 0.0031
6,GCAAATAA,-0.00101 ± 0.049
7,CGTCTCTA,-0.108 ± 0.016
8,AACCTTCG,-0.135 ± 0.0027
9,AACCGTCA,0.0593 ± 0.013
10,CTGGCGAC,0.124 ± 0.059
11,TTGTCAAA,0.144 ± 0.09
12,GTACTCAC,0.165 ± 0.039
13,AAGTAAAG,-0.229 ± 0.036
14,TAGGTAGA,-0.0825 ± 0.048
15,CCTTCAAA,-0.154 ± 0.045
16,ATTCCCAG,-0.25 ± 0.009
17,CTGAGATA,-0.0661 ± 0.016
18,ACTGAGCT,-0.0168 ± 0.017
19,AAAGACTT,-0.307 ± 0.017
20,GTCAATGA,0.0412 ± 0.063
21,AAAATGCG,-0.0163 ± 0.0012
22,CAAGGCGC,0.2195 ± 0.0016
23,GGGAAAGA,-0.152 ± 0.053
24,GGGTGCAA,0.31 ± 0.0046
25,TAAAGATA,-0.157 ± 0.049

row,Sequence,PBM E-score of 8-mer
1,CTTCACTA,0.0129 ± 0.037
2,TAGTGCCA,0.249 ± 0.0097
3,ACGCTAGA,-0.00085 ± 0.045
4,ACCGAGGA,-0.0718 ± 0.0034
5,AGTATGTA,-0.113 ± 0.014
6,ATCAAGTA,-0.121 ± 0.063
7,TAGTAAAA,-0.0773 ± 0.045
8,CCATACGA,-0.0968 ± 0.053
9,ACAATCTG,-0.11 ± 0.014
10,TATCCTAA,-0.0501 ± 0.021
11,AAGCAGTC,-0.167 ± 0.023
12,ACACCGGC,0.193 ± 0.027
13,CGACTGTA,-0.111 ± 0.014
14,GAATTGCA,0.0307 ± 0.043
15,CCAGCTCC,-0.183 ± 0.017
16,ATACCTAC,-0.172 ± 0.0048
17,GATGACCC,0.111 ± 0.006
18,ACTCGAAC,-0.0874 ± 0.031
19,AGACTGCG,0.00438 ± 0.053
20,CTATGGAG,-0.138 ± 0.041
21,TATTCTGA,-0.0175 ± 0.054
22,AAGTTTAC,-0.00735 ± 0.051
23,ATAGTTTA,-0.3 ± 0.017
24,CTAGACGA,0.00336 ± 0.051
25,GCTTGAGA,-0.103 ± 0.046

row,Sequence,PBM E-score of 8-mer
1,AGTACGGC,-0.144 ± 0.057
2,AGACTGGG,-0.261 ± 0.012
3,ACACCGGG,0.132 ± 0.028
4,ATAAAGCA,-0.067 ± 0.091
5,ATATCAAG,-0.0732 ± 0.11
6,AGATGTAA,0.00792 ± 0.061
7,CCCCTGAG,-0.0747 ± 0.052
8,CATACAGG,-0.17 ± 0.0088
9,ACTGAGGG,0.0207 ± 0.066
10,CTATCATC,0.0965 ± 0.015
11,CGGTCCAA,-0.148 ± 0.0024
12,AGGAACTA,-0.0348 ± 0.016
13,ATAGGAAG,-0.24 ± 0.0037
14,ATGCCAGG,0.0213 ± 0.052
15,CGTGATCA,0.115 ± 0.0037
16,AATCGTTA,0.0624 ± 0.03
17,TCCACGGA,-0.0781 ± 0.017
18,ATATGCCC,-0.143 ± 0.0056
19,GGCGCTGA,0.1761 ± 0.0012
20,ATCATGGC,0.112 ± 0.074
21,ACATGTCG,0.198 ± 0.011
22,GTTTTCAA,-0.0894 ± 0.055
23,GGAGCATA,-0.0893 ± 0.017
24,ACTTGGTC,-0.0302 ± 0.035
25,ACTATGGG,0.0361 ± 0.038

row,Sequence,PBM E-score of 8-mer
1,CCGCCACG,0.101 ± 0.11
2,CACCGTTC,0.0184 ± 0.018
3,AGTCGTCC,-0.273 ± 0.017
4,AAGCATAC,-0.113 ± 0.017
5,ACTGCCAC,0.221 ± 0.031
6,GAAGTTTA,-0.0984 ± 0.028
7,AGTCGGCG,-0.0177 ± 0.013
8,ACTCGTGC,0.231 ± 0.026
9,GAGGGATC,0.0247 ± 0.014
10,GACGACTC,-0.0256 ± 0.066
11,CCCAACGA,-0.174 ± 0.0069
12,ACCTTAGT,-0.0859 ± 0.028
13,CCAACGCA,-0.0864 ± 0.045
14,TAAGCAGA,-0.0743 ± 0.051
15,AGACCTCA,0.0571 ± 0.053
16,AGGACTCA,-0.12 ± 0.047
17,AACCTGAC,0.111 ± 0.026
18,AGGTACTC,-0.00173 ± 0.059
19,ACCTGCGG,0.151 ± 0.046
20,CGCATGCC,-0.192 ± 0.061
21,CACGATCA,0.148 ± 0.016
22,ATGGCTCA,-0.0311 ± 0.0022

# Reference: the supplement of paper PMC4166925
